# Measured values as given in the supplement of paper PMC9990464.
# Counter-ions that a name gives are not always drawn. The list shows a part of the results. Many values rest on one well or one pass, so single values are uncertain.
# System: KCNR
# Experiment: area under viability curve (10 nM-1 µM), viability relative to solvent or trametinib-only control (AUC (arbitrary, % viability x concentration range)); higher = less growth inhibition (more viable cells)
# Conditions: 72 h compound exposure (96 h after seeding) h; trametinib co-treatment 0 µM
# Procedure: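 Four neuroblastoma cell lines (KCNR, SKNBE, SJNB8, SKNAS) were seeded in 384-well plates. At 24 h, 1 µM trametinib or DMSO was added, followed by library compounds at 10 nM, 100 nM and 1 µM. Viability was read by MTT at 96 h and normalised to solvent-treated cells (DMSO arm) or to trametinib-only cells (trametinib arm). The area under the 3-point viability curve was computed in GraphPad Prism; units are as given (approx. 100000 = no effect).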
# 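Note: KCNR is a neuroblastoma cell line carrying an ALK mutation, in this DMSO arm without trametinib, viability was normalised to solvent-treated cells.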
row,Structure (SMILES),area under viability curve
1,C[C@]12CCC(=O)C(O)=C1CC[C@@H]1[C@@H]2CC[C@]2(C)C(=O)CC[C@@H]12 [Formestane],110000
2,CC[C@H](Nc1nc(NCc2cnc(C)cc2C)c2ncn(C(C)C)c2n1)[C@@H](C)O [Fadraciclib],76800
3,CC[C@@]1([C@H]2O[C@H]([C@H]3O[C@@](O)(CO)[C@H](C)C[C@@H]3C)C[C@H]2C)CC[C@H]([C@@]2(C)CC[C@]3(C[C@H](O)[C@@H](C)[C@@H]([C@H](C)[C@H](OC)[C@@H](C)C(=O)O)O3)O2)O1 [Monensin sodium],50000
4,CCC(=O)CCCCC[C@@H]1NC(=O)[C@H]2CCCCN2C(=O)[C@H]([C@@H](C)CC)NC(=O)[C@H](Cc2cn(OC)c3ccccc23)NC1=O [Apicidin],42900
5,N[C@@H]1C[C@H]1c1ccccc1.N[C@H]1C[C@@H]1c1ccccc1 [Tranylcypromine hemisulfate],100000
6,Cc1ncc(CNC(=O)N(CCCl)N=O)c(N)n1 [Nimustine HCl],108000
7,C[C@]12CC[C@@H]3c4ccc(OC(=O)N(CCCl)CCCl)cc4CC[C@H]3[C@@H]1CC[C@@H]2OP(=O)(O)O [Estramustine phosphate sodium],100000
8,O=C(O)c1nn(Cc2ccc(Cl)cc2Cl)c2ccccc12 [Lonidamine],105000
9,N.N.[Cl][Pt][Cl] [Cisplatin],98800
10,C=C1C[C@@H]2[C@H](CC[C@]3(C)C(=O)CC[C@@H]23)[C@@]2(C)C=CC(=O)C=C12 [Exemestane],101000
11,N[C@@H](Cc1ccc(N(CCCl)CCCl)cc1)C(=O)O [Melphalan],103000
12,CC(=O)Oc1ccc(/C=C/c2cc(OC(C)=O)cc(OC(C)=O)c2)cc1 [Triacetylresveratrol],98900

# Same assay, conditions: 72 h compound exposure (96 h after seeding) h; trametinib co-treatment 1 µM
row,Structure (SMILES),area under viability curve
1,C[C@]12CCC(=O)C(O)=C1CC[C@@H]1[C@@H]2CC[C@]2(C)C(=O)CC[C@@H]12 [Formestane],105000
2,CC[C@H](Nc1nc(NCc2cnc(C)cc2C)c2ncn(C(C)C)c2n1)[C@@H](C)O [Fadraciclib],62400
3,CC[C@@]1([C@H]2O[C@H]([C@H]3O[C@@](O)(CO)[C@H](C)C[C@@H]3C)C[C@H]2C)CC[C@H]([C@@]2(C)CC[C@]3(C[C@H](O)[C@@H](C)[C@@H]([C@H](C)[C@H](OC)[C@@H](C)C(=O)O)O3)O2)O1 [Monensin sodium],29100
4,CCC(=O)CCCCC[C@@H]1NC(=O)[C@H]2CCCCN2C(=O)[C@H]([C@@H](C)CC)NC(=O)[C@H](Cc2cn(OC)c3ccccc23)NC1=O [Apicidin],27600
5,N[C@@H]1C[C@H]1c1ccccc1.N[C@H]1C[C@@H]1c1ccccc1 [Tranylcypromine hemisulfate],100000
6,Cc1ncc(CNC(=O)N(CCCl)N=O)c(N)n1 [Nimustine HCl],101000
7,C[C@]12CC[C@@H]3c4ccc(OC(=O)N(CCCl)CCCl)cc4CC[C@H]3[C@@H]1CC[C@@H]2OP(=O)(O)O [Estramustine phosphate sodium],98500
8,O=C(O)c1nn(Cc2ccc(Cl)cc2Cl)c2ccccc12 [Lonidamine],102000
9,N.N.[Cl][Pt][Cl] [Cisplatin],105000
10,C=C1C[C@@H]2[C@H](CC[C@]3(C)C(=O)CC[C@@H]23)[C@@]2(C)C=CC(=O)C=C12 [Exemestane],96800
11,N[C@@H](Cc1ccc(N(CCCl)CCCl)cc1)C(=O)O [Melphalan],96500
12,CC(=O)Oc1ccc(/C=C/c2cc(OC(C)=O)cc(OC(C)=O)c2)cc1 [Triacetylresveratrol],100000
